# Test results as given in PubChem BioAssay AID1347417 (National Center for Advancing Translational Sciences (NCATS), 2020).
# The whole screen tested about 120,000 compounds, of which about 5,300 (4.4%) were called active. Inconclusive means that the source gave no clear call. Such entries were picked first, then a sample of the others. Calls come from the whole dose curve; as a rule, active = well fitted inhibition curve with a large enough effect; inconclusive = small, poorly fitted or top-dose-only effect; inactive = no such curve, though single readings can be large or run the other way. A potency beside an inconclusive call is a rough fit, not a confirmed value.
# Assay: qHTS Primary assay for Inhibitors of Plasmodium falciparum Dd2 growth in vitro; note: nearly all actives have a fitted effect of over 65% in size;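 for activity, negative = inhibition: plate controls were DMSO vehicle for no effect and reference drug for full effect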
# Settings: P. falciparum Dd2 growth, SYBR Green, 72 h; activity, negative = inhibition: at 28.9 µM (top of the series) unless noted; series mostly up to 28.9 µM
# Method in brief: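 Readout: SYBR Green fluorescence, 485 nm excitation, 535 nm emission, after ~16 h lysis at 37C. Before that, Dd2-infected red cells (2.5% hematocrit) grew 72 h with compound, 29 uM top final concentration.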
# Potency is the fitted concentration of half-maximal effect; tags give direction and shape of the fitted curve.
SMILES,Potency,"activity, negative = inhibition",outcome
COc1ccc(OC)c(NC(=O)C2CN(S(=O)(=O)C3CC3)CC23CCCCC3)c1 (stereo unspecified),"inconclusive: 14.1 µM [inhibitor, partial curve, poor fit]",–,–
COc1ccc(-c2cc(N3CCCN(C(=O)c4ccc(Cl)cc4)CC3)n[nH]2)cc1,"inconclusive: 1.78 µM [inhibitor, single point]",–,–
CCCCSc1ncnc2c1c(-c1ccccc1)cn2-c1cccc(F)c1,"inconclusive: 1.41 µM [inhibitor, single point]",–,–
CCN(CC)CCNC(=O)c1ccc2c(c1)sc1nc(-c3ccc(F)cc3)cn12,active: 3.16 µM,–,–
CCN(CC)S(=O)(=O)c1nnc(NC(=O)COc2ccc(Cl)cc2)s1,–,inconclusive: -34.1% [inhibitor] [at 5.79 µM],–
O=C(c1ccc(Oc2ccccc2)cc1)N1CCC2OCCN(c3ccccc3)C(=O)C2C1 (stereo unspecified),–,inactive: -7.18%,–
Cc1nn(C)cc1C(=O)N[C@@H]1CN(S(C)(=O)=O)C[C@H]1CN(C)C,–,inactive: 46.4%,–
COC1CN(c2ccc(C)cc2)C12CCN(C(=O)c1nccc3ccccc13)CC2 (stereo unspecified),–,–,inactive
Cn1cc(CC(=O)N2CCCc3ncc(C(=O)NCCc4ccccn4)cc32)c2ccccc21,"inconclusive: 11.2 µM [inhibitor, single point]",–,–
CCN1CCN(c2c(S(=O)(=O)c3ccc(C)c(C)c3)cnc3cc(OC)c(OC)cc23)CC1,"inconclusive: 6.31 µM [inhibitor, partial curve]",–,–
Cc1ccc(N2CC(c3noc(COc4cccc(C)c4)n3)CC2=O)cc1 (stereo unspecified),–,inactive: -9.24%,–
Cn1cc(-c2cnc3n[nH]c(-c4ccc5c(c4)OCO5)c3n2)cn1,"inconclusive: 2.82 µM [inhibitor, single point]",–,–
CCN(CC)C(=O)c1sc2c(c1C)c(=O)n(-c1ccccc1)c(=O)n2CC(=O)Nc1ccc(C)cc1C,"inconclusive: 10 µM [inhibitor, single point]",–,–
CC(=O)N1CCC(NC[C@H]2COCc3nc4cc(F)ccc4n32)CC1,–,inactive: -10.4% [at 44.1 µM],–
O=C(c1ccc(CC2CCN(C(=O)C3CCCO3)CC2)cc1)N1CCOCC1 (stereo unspecified),–,inactive: 10.1%,–
COc1ccc(-c2cc3nc4c(c(=O)n3[nH]2)CN(C(=O)c2ccc3[nH]ccc3c2)CC4)cc1,"inconclusive: 0.316 µM [inhibitor, partial curve, poor fit]",–,–
O=C(NC1CCCCCC1)c1ccc(CN2C(=O)NC3(CCS(=O)(=O)CC3)C2=O)cc1,"inconclusive: 17.8 µM [inhibitor, single point]",–,–
CN(C)S(=O)(=O)c1ccc(C(=O)N2CC(=O)Nc3ccc(Br)cc3C2c2ccc(F)cc2)cc1 (stereo unspecified),–,inactive: 0.212%,–
Cc1cccc(NC(=O)N2CCc3c(C(=O)N(C)Cc4ccco4)cccc32)c1,"inconclusive: 17.8 µM [inhibitor, single point]",–,–
Fc1ccc(-c2nnc3ccc(NC4CCC4)nn23)nc1,"inconclusive: 39.8 µM [inhibitor, single point]",–,–
O=C(COc1ccc(F)cc1)N1CCC(Oc2ncccc2C(=O)N2CCCCC2)C1 (stereo unspecified),"inconclusive: 3.16 µM [inhibitor, single point]",–,–
CCOc1cc(CNc2ccc(O)cc2)ccc1OCc1ccc(Cl)cc1,"inconclusive: 12.6 µM [inhibitor, single point]",–,–

SMILES,Potency,"activity, negative = inhibition",outcome
CCOCCCNC(=O)C1CCC(CNS(=O)(=O)c2ccc(NC(C)=O)cc2)CC1 (stereo unspecified),–,inactive: 20.4%,–
Cc1ccc(C)c(CN2C(=O)c3ccccc3S(=O)c3ccc(C(=O)NCc4ccccc4)cc32)c1 (stereo unspecified),"inconclusive: 11.2 µM [inhibitor, partial curve, poor fit]",–,–
COc1cccc(CN2CCOC[C@H](Oc3ccc(C(F)(F)F)cc3)C2)c1,–,inactive: -23.2% [at 44.1 µM],–
COc1ccc(CN(C)Cc2ccoc2)cc1OCC(O)CN1CCCCC1 (stereo unspecified),"inconclusive: 12.6 µM [inhibitor, partial curve, poor fit]",–,–
CCN1CCN(c2c(S(=O)(=O)c3ccc(OC)cc3)cnc3cc(OC)c(OC)cc23)CC1,"inconclusive: 8.91 µM [inhibitor, partial curve]",–,–
CCc1ccc(S(=O)(=O)c2nnn3c2nc(NC2CCCCCC2)c2sccc23)cc1,"inconclusive: 17.8 µM [inhibitor, single point]",–,–
COc1cccc2c1Oc1ncccc1N(C(=O)Nc1ccc(F)c(Cl)c1)C2,"inconclusive: 17.8 µM [inhibitor, single point]",–,–
CC1=C[C@@H](CNCc2ccc(F)cc2)[C@H](C(C)C)C[C@H]1Cc1nnc(C)o1,"inconclusive: 1.41 µM [inhibitor, partial curve, poor fit]",–,–
COc1ccc(C(C)NC(=O)c2cc3c(n2C)CCN(Cc2ccccc2)C3)cc1OC (stereo unspecified),"inconclusive: 10 µM [inhibitor, single point]",–,–
COc1cccc(C(=O)N2CCC(c3nc(-c4cccnn4)no3)CC2)c1,–,inactive: -11.3%,–
CCOC(=O)c1c(C)oc2nc(C)nc(Nc3ccc(CC)cc3)c12,"inconclusive: 1 µM [inhibitor, full curve, poor fit]",–,–
CCn1c(C(=O)N2CCC(C(=O)NCCc3ccc(OC)cc3OC)CC2)cc2sccc21,"inconclusive: 11.2 µM [inhibitor, partial curve, poor fit]",–,–
Cc1ccc(-c2[nH]ncc2CN2CC[C@@](C)(O)[C@H](N3CCCC3)C2)cc1,"inconclusive: 1.41 µM [inhibitor, single point]",–,–
Cc1ccc(NC(=O)c2oc3ccc(S(=O)(=O)N(C)C4CCCCC4)cc3c2C)cc1Cl,"inconclusive: 0.0794 µM [inhibitor, full curve, poor fit]",–,–
O=C1CC2CCN(Cc3cccc(C(F)(F)F)c3)CC2CCN1 (stereo unspecified),–,inactive: -9.66%,–
O=C(NCC1CCCO1)c1cc2c(=O)[nH]c(-c3ccccc3)cn2n1 (stereo unspecified),"inconclusive: 5.01 µM [inhibitor, partial curve, poor fit]",–,–
CC1=C[C@@H](CN2CCN(c3ccccn3)CC2)[C@H](C(C)C)C[C@H]1Cc1nnc(-c2cncn2C)o1,"inconclusive: 3.98 µM [inhibitor, single point]",–,–
O=C1NCc2ccccc2CC12CCN(Cc1ccc(Cl)cc1)C2 (stereo unspecified),–,inactive: -5.94%,–
COc1cc2c(cc1OCC1CC1)NC(=O)C21CCN(c2cnccn2)CC1,"inconclusive: 2.82 µM [inhibitor, full curve, poor fit]",–,–
CCOC(=O)c1ccc(NC(=O)N2CCc3c(nc4cc[nH]n4c3=O)C2)cc1,"inconclusive: 4.47 µM [inhibitor, partial curve, poor fit]",–,–
O=C(Nc1cccc(-c2nnc3n2CCCC3)c1)NC1CCCC1,"inconclusive: 17.8 µM [inhibitor, single point]",–,–
CCCN(c1ccccc1CC)S(=O)(=O)c1ccc2c(c1)CC(C)N2C(=O)C1CC1 (stereo unspecified),active: 8.91 µM,–,–

SMILES,Potency,"activity, negative = inhibition",outcome
COc1ccc(-n2c(/C=C/c3cccc(F)c3)nc3ccccc3c2=O)cc1Cl,–,inactive: 55.7%,–
CC(=O)NCCNc1cc(C)c2ccc(Cl)cc2n1,–,inactive: -11.8%,–
O=C(c1cc(F)ccc1F)N1C[C@@H](CO)[C@H](c2ccncc2)C1,–,inactive: -1.34%,–
C#C[C@H]1CN2CC[C@H]1C[C@@H]2CNCc1cccc(C#N)c1,active: 14.1 µM,–,–
O=C(c1cccs1)N1CCCC(CN2CCCC2)CC1 (stereo unspecified),"inconclusive: 17.8 µM [inhibitor, single point]",–,–
CCOc1ccccc1C1NC(=O)N(CC(=O)Nc2cccc(SC)c2)C2=C1C(=O)OC2 (stereo unspecified),"inconclusive: 17.8 µM [inhibitor, single point]",–,–
COCC(=O)N1CCCN(c2nc3ncccc3o2)CC1,–,inactive: -3.33% [at 44.1 µM],–
O=C(c1cc(C2CC2)nc2c1c(C1CCCN1)nn2-c1ccccc1)N1CCOCC1 (stereo unspecified),"inconclusive: 10 µM [inhibitor, single point]",–,–
Cc1ccc(Cn2c(C3CCN(C(=O)c4c(F)cccc4F)CC3)n[nH]c2=O)cc1,"inconclusive: 10 µM [inhibitor, single point]",–,–
COc1cccc(-c2nc(CSCC(=O)NCCc3ccc(Cl)cc3)c(C)o2)c1,"inconclusive: 17.8 µM [inhibitor, single point]",–,–
CC1=C[C@@H](CNCC(C)C)[C@H](C(C)C)C[C@H]1Cc1nc2c(C)cccc2[nH]1,"inconclusive: 3.55 µM [inhibitor, partial curve, poor fit]",–,–
O=C(Cc1cccc(Cl)c1)N1CCC(n2cc(-c3nc(-c4ccccc4)no3)nn2)CC1,"inconclusive: 17.8 µM [inhibitor, single point]",–,–
CCCCN(CCCC)CC(O)Cn1cc(/C=C/C(=O)c2ccccc2)c2ccccc21 (stereo unspecified),active: 0.891 µM,–,–
CCC(CO)Nc1ncnc2c1CN(C1CCCNC1)C(=O)CN2C (stereo unspecified),–,inactive: 18.8%,–
CC1(C)[C@H]2CC[C@@H](CNC(=O)c3ccc(C(F)(F)F)cc3)[C@@H]1C2,active: 10 µM,–,–
CN1c2cc(C(=O)Nc3ccc4c(c3)CCC4)ccc2C(=O)N2CCCCC21 (stereo unspecified),"inconclusive: 1 µM [inhibitor, partial curve, poor fit]",–,–
Cc1ccc(Cl)cc1NC(=O)CSC1=Nc2ccccc2C2=NC(Cc3ccccc3)C(=O)N12 (stereo unspecified),"inconclusive: 17.8 µM [inhibitor, single point]",–,–
COCC1(CNC(=O)c2nc3ccccc3[nH]2)C[C@@H](O)[C@@H](O)C1 (stereo partly specified),–,inactive: 9.17% [at 44.1 µM],–
Cc1noc(C)c1Cn1cc2c3c(cccc31)[C@H](CC(C)C)N[C@H](C(=O)O)C2,–,–,inactive [at 44.1 µM]
CC(C)(O)CCc1ccc(C(=O)N2CCN(c3ccncc3)CC2)cc1,–,inactive: -2.42%,–
COc1ccc(NC(=O)c2sc3nc(C)c(C(=O)Nc4ccc(C)cc4C)c(-c4ccc(C)o4)c3c2N)cc1,active: 8.91 µM,–,–
O=C1NCCOCCCN(S(=O)(=O)c2ccc3c(c2)OCCO3)[C@H]2CCC[C@@H]12,"inconclusive: 20 µM [inhibitor, single point]",–,–
